Measured values as given in the supplement of paper PMC12217912.
This is one part of the list. The full chains were built here from the parent and the listed change. Inactive controls read about 0.05.

B1: TEV protease; numbered along this chain (parent)
chain: MGESLFKGPRDYNPISSSICHLTNESDGHTTSLYGIGFGPFIITNKHLFRRNNGTLVVQSLHGVFKVKDTTTLQQHLVDGRDMIIIRMPKDFPPFPQKLKFREPQREERICLVTTNFQTKSMSSMVSDTSCTFPSGDGIFWKHWIQTKDGQCGSPLVSTRDGFIVGIHSASNFTNTNNYFTSVPKNFMELLTNQEAQQWVSGWRLNADSVLWGGHKVFMVKPEEPFQPVKEATQL

Variants of: B1
Assay: raw area under fraction-flipped curve 0-4 h after induction (AUC4h, not background-subtracted), DNA-recorder readout of cleavage of the substrate (dimensionless); higher = more cleavage of the substrate by the protease variant
Conditions: temperature: 34 °C; time window: 0-4 h after rhamnose induction
Description: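 In vivo DNA recorder in E. coli TOP10(DE3) ΔrhaA at 34 °C. Each TEVp single-site mutant (parent TEVp 0) is paired with a single-site variant of the 7-mer TEVs (canonical ENLYFQ|S). The substrate sits between flexible linkers in a Bxb1-sfGFP-TEVs-SsrA fusion, so cleavage stabilises Bxb1 and speeds flipping of a recombination array, read by NGS. The value is the raw area under the fraction-flipped curve over 0-4 h after rhamnose induction (AUC4h), with ≥20 reads per time point. It is not background-subtracted; inactive controls average about 0.047.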
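Also: Bxb1 expression induced with 0.2% (w/v) L-rhamnose at OD600 near 0.5, cultures sampled hourly, flipped fraction per protease–substrate barcode pair counted by paired-end Illumina sequencing.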

Variant	area with substrate EALYFQS	area with substrate ECLYFQS	area with substrate EDLYFQS	area with substrate EILYFQS	area with substrate EKLYFQS	area with substrate ELLYFQS	area with substrate EPLYFQS	area with substrate EQLYFQS	area with substrate ERLYFQS	area with substrate ESLYFQS	area with substrate EVLYFQS	area with substrate EWLYFQS	area with substrate EYLYFQS	area with substrate EHLYFQS	area with substrate EMLYFQS	area with substrate ETLYFQS	area with substrate EGLYFQS	area with substrate EELYFQS	area with substrate EFLYFQS
MGESLFKGPRDYNPISSSICHLTNESDGHTTSLYGIGFGPFIINNKHLFRRNNGTLVVQSLHGVFKVKDTTTLQQHLVDGRDMIIIRMPKDFPPFPQKLKFREPQREERICLVTTNFQTKSMSSMVSDTSCTFPSGDGIFWKHWIQTKDGQCGSPLVSTRDGFIVGIHSASNFTNTNNYFTSVPKNFMELLTNQEAQQWVSGWRLNADSVLWGGHKVFMVKPEEPFQPVKEATQL [T44N]	0.0455	0.0398	0.0425	0.0347	0.0275	0.0483	0.0549	0.0438	0.0546	0.0469	0.0444	0.0365	0.0453						
MGESLFKGPRDYNPISSSICHLTNESDGHTTSLYGIGKGPFIITNKHLFRRNNGTLVVQSLHGVFKVKDTTTLQQHLVDGRDMIIIRMPKDFPPFPQKLKFREPQREERICLVTTNFQTKSMSSMVSDTSCTFPSGDGIFWKHWIQTKDGQCGSPLVSTRDGFIVGIHSASNFTNTNNYFTSVPKNFMELLTNQEAQQWVSGWRLNADSVLWGGHKVFMVKPEEPFQPVKEATQL [F38K]	0.0429		0.0728	0.0492	0.0512	0.0618		0.0688	0.0658	0.0593	0.0624	0.0651	0.0833	0.0578	0.0653	0.0559			
MGESLFKGPRDYNPISSSICHLTNESDGHTTSLYGIGFGPFIITEKHLFRRNNGTLVVQSLHGVFKVKDTTTLQQHLVDGRDMIIIRMPKDFPPFPQKLKFREPQREERICLVTTNFQTKSMSSMVSDTSCTFPSGDGIFWKHWIQTKDGQCGSPLVSTRDGFIVGIHSASNFTNTNNYFTSVPKNFMELLTNQEAQQWVSGWRLNADSVLWGGHKVFMVKPEEPFQPVKEATQL [N45E]	0.0632	0.058		0.0633	0.0638	0.084		0.0584	0.0587	0.0592	0.061	0.0558	0.0535	0.0598		0.0537	0.0592		
MGESLFKGPRDYNPISSSICHLTNESDGHTTSLYGIGFFPFIITNKHLFRRNNGTLVVQSLHGVFKVKDTTTLQQHLVDGRDMIIIRMPKDFPPFPQKLKFREPQREERICLVTTNFQTKSMSSMVSDTSCTFPSGDGIFWKHWIQTKDGQCGSPLVSTRDGFIVGIHSASNFTNTNNYFTSVPKNFMELLTNQEAQQWVSGWRLNADSVLWGGHKVFMVKPEEPFQPVKEATQL [G39F]	0.0435	0.0403		0.0442	0.0489	0.043	0.0377		0.0433	0.048	0.0417		0.0355		0.0442		0.0525	0.0486	0.0453
MGESLFKGPRDYNPISSSICHLTNESDGHTTSLYGIGFYPFIITNKHLFRRNNGTLVVQSLHGVFKVKDTTTLQQHLVDGRDMIIIRMPKDFPPFPQKLKFREPQREERICLVTTNFQTKSMSSMVSDTSCTFPSGDGIFWKHWIQTKDGQCGSPLVSTRDGFIVGIHSASNFTNTNNYFTSVPKNFMELLTNQEAQQWVSGWRLNADSVLWGGHKVFMVKPEEPFQPVKEATQL [G39Y]	0.0517	0.0987		0.0416	0.0358	0.0519		0.057	0.0319	0.0454	0.0396				0.0464	0.0544	0.0512	0.0324	0.0521
MGESLFKGPRDYNPISSSICHLTNESDGHTTSLYGIGFLPFIITNKHLFRRNNGTLVVQSLHGVFKVKDTTTLQQHLVDGRDMIIIRMPKDFPPFPQKLKFREPQREERICLVTTNFQTKSMSSMVSDTSCTFPSGDGIFWKHWIQTKDGQCGSPLVSTRDGFIVGIHSASNFTNTNNYFTSVPKNFMELLTNQEAQQWVSGWRLNADSVLWGGHKVFMVKPEEPFQPVKEATQL [G39L]	0.0343	0.0305		0.0408	0.0476	0.0357				0.0436	0.0276				0.0405	0.104		0.0274	
MGESLFKGPRDYNPISSSICHLTNESDGHTTSLYGIGFGPFVITNKHLFRRNNGTLVVQSLHGVFKVKDTTTLQQHLVDGRDMIIIRMPKDFPPFPQKLKFREPQREERICLVTTNFQTKSMSSMVSDTSCTFPSGDGIFWKHWIQTKDGQCGSPLVSTRDGFIVGIHSASNFTNTNNYFTSVPKNFMELLTNQEAQQWVSGWRLNADSVLWGGHKVFMVKPEEPFQPVKEATQL [I42V]	0.124	0.101	0.0955	0.0889	0.108			0.138	0.0978	0.102		0.0995		0.126	0.105	0.123			
MGESLFKGPRDYNPISSSICHLTNESDGHTTSLYGIFFGPFIITNKHLFRRNNGTLVVQSLHGVFKVKDTTTLQQHLVDGRDMIIIRMPKDFPPFPQKLKFREPQREERICLVTTNFQTKSMSSMVSDTSCTFPSGDGIFWKHWIQTKDGQCGSPLVSTRDGFIVGIHSASNFTNTNNYFTSVPKNFMELLTNQEAQQWVSGWRLNADSVLWGGHKVFMVKPEEPFQPVKEATQL [G37F]	0.0666		0.0664			0.0642	0.0828	0.0764	0.0762	0.0752		0.0699	0.0713	0.0673	0.0911			0.0813	0.068
MGESLFKGPRDYNPISSSICHLTNESDGHTTSLYGIAFGPFIITNKHLFRRNNGTLVVQSLHGVFKVKDTTTLQQHLVDGRDMIIIRMPKDFPPFPQKLKFREPQREERICLVTTNFQTKSMSSMVSDTSCTFPSGDGIFWKHWIQTKDGQCGSPLVSTRDGFIVGIHSASNFTNTNNYFTSVPKNFMELLTNQEAQQWVSGWRLNADSVLWGGHKVFMVKPEEPFQPVKEATQL [G37A]	0.111	0.118		0.0925	0.12			0.117		0.104	0.0882	0.0845	0.0905	0.0988		0.0788		0.12	
MGESLFKGPRDYNPISSSICHLTNESDGHTTSLYGISFGPFIITNKHLFRRNNGTLVVQSLHGVFKVKDTTTLQQHLVDGRDMIIIRMPKDFPPFPQKLKFREPQREERICLVTTNFQTKSMSSMVSDTSCTFPSGDGIFWKHWIQTKDGQCGSPLVSTRDGFIVGIHSASNFTNTNNYFTSVPKNFMELLTNQEAQQWVSGWRLNADSVLWGGHKVFMVKPEEPFQPVKEATQL [G37S]	0.0746	0.0767		0.0836		0.0436	0.0722	0.0965	0.0746	0.0828	0.092	0.0786			0.0823				
